Measurements published in a compilation of properties of binary mixtures (doi:10.1002/cjce.20546).
The densities may have been worked out from excess volumes.

Experiment: xn = mol fraction of the nth substance listed
Settings: 298.15 K, 101 kPa

CO + CC(CC(C)(C)C)CP(=O)([O-])CC(C)CC(C)(C)C.CCCCCCCCCCCCCC[P+](CCCCCC)(CCCCCC)CCCCCC
mass density (x1 = 1): 786.7 kg/m3

CCC(C)(C)OC + CC(CC(C)(C)C)CP(=O)([O-])CC(C)CC(C)(C)C.CCCCCCCCCCCCCC[P+](CCCCCC)(CCCCCC)CCCCCC
mass density (x1 = 0.1078): 884.7 kg/m3
mass density (x1 = 0.2021): 882.8 kg/m3
mass density (x1 = 0.2989): 880.3 kg/m3
mass density (x1 = 0.4172): 876.4 kg/m3
mass density (x1 = 0.5019): 872.7 kg/m3
mass density (x1 = 0.7036): 857.6 kg/m3
mass density (x1 = 0.7996): 844 kg/m3
mass density (x1 = 0.9): 819.3 kg/m3
mass density (x1 = 0.95): 798.7 kg/m3
mass density (x1 = 1): 766 kg/m3

CC(CC(C)(C)C)CP(=O)([O-])CC(C)CC(C)(C)C.CCCCCCCCCCCCCC[P+](CCCCCC)(CCCCCC)CCCCCC + CCC(C)(C)OC
mass density (x2 = 0): 886.4 kg/m3

CC(CC(C)(C)C)CP(=O)([O-])CC(C)CC(C)(C)C.CCCCCCCCCCCCCC[P+](CCCCCC)(CCCCCC)CCCCCC + CC(C)OC(C)C
mass density (x2 = 0): 886.4 kg/m3
mass density (x2 = 0.0457): 885.6 kg/m3
mass density (x2 = 0.108): 884.1 kg/m3
mass density (x2 = 0.2971): 877.8 kg/m3
mass density (x2 = 0.4005): 872.6 kg/m3
mass density (x2 = 0.5002): 866 kg/m3
mass density (x2 = 0.5996): 857.2 kg/m3
mass density (x2 = 0.7003): 844.4 kg/m3
mass density (x2 = 0.8001): 824.9 kg/m3
mass density (x2 = 0.8998): 790.9 kg/m3
mass density (x2 = 0.9499): 762.3 kg/m3

CC(CC(C)(C)C)CP(=O)([O-])CC(C)CC(C)(C)C.CCCCCCCCCCCCCC[P+](CCCCCC)(CCCCCC)CCCCCC + CCCO
mass density (x2 = 0): 886.4 kg/m3
mass density (x2 = 0.1063): 886 kg/m3
mass density (x2 = 0.1942): 885.6 kg/m3
mass density (x2 = 0.3995): 883.9 kg/m3
mass density (x2 = 0.5025): 882.4 kg/m3
mass density (x2 = 0.605): 880 kg/m3
mass density (x2 = 0.7012): 876.4 kg/m3
mass density (x2 = 0.8005): 870 kg/m3
mass density (x2 = 0.8997): 855.2 kg/m3
mass density (x2 = 0.9501): 838.2 kg/m3

CC(CC(C)(C)C)CP(=O)([O-])CC(C)CC(C)(C)C.CCCCCCCCCCCCCC[P+](CCCCCC)(CCCCCC)CCCCCC + CO
mass density (x2 = 0): 886.4 kg/m3
mass density (x2 = 0.1098): 886.4 kg/m3
mass density (x2 = 0.3979): 886.1 kg/m3
mass density (x2 = 0.5029): 885.7 kg/m3
mass density (x2 = 0.6008): 884.9 kg/m3
mass density (x2 = 0.8001): 879 kg/m3

CCCO + CC(CC(C)(C)C)CP(=O)([O-])CC(C)CC(C)(C)C.CCCCCCCCCCCCCC[P+](CCCCCC)(CCCCCC)CCCCCC
mass density (x1 = 1): 799.7 kg/m3
